This experiment can be described thus: qHTS Assay for Lipid Storage Modulators (AID 1519). The settings on record: Drosophila S3 cells, BODIPY lipid droplet/cell ratio, laser cytometry, cells loaded with oleic acid. The gist of the method: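 Cells seeded at 5,000 per well were treated with compounds over a concentration series and loaded with oleic acid (400 uM, as added). Lipid droplet fluorescence (488 nm excitation, 500-530 nm channel) was read by laser-scanning cytometry and normalized to 20 uM Triacsin C.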
For orientation: qHTS replaces the single test concentration by a dilution series.

Setting [1] is: measured here: cell count channel max response.
Setting [2] is: measured here: lipid (BODIPY) channel AC50.
The mark [3] stands for this setting: measured here: lipid channel max response.
Where [4] appears, read: measured here: cell number channel AC50.

Each structure is given as a SMILES string. Several values for one entry are separate records, joined by “and”; a condition that tells them apart may be missing. Equal values may be shown once. Some of the results follow. Further columns of the screen follow, without active or inactive calls. The list favours compounds with an active or inconclusive main result. Words in brackets tell the shape of the fitted curve; partial curves, single points and poor fits give uncertain potencies.
Tags describe the fitted curve by direction and shape.

As for `COc1ccc(C(=O)N2CCC3(CCCN(c4ccccn4)C3)CC2)cc1`, the max response amounted to 17.7% under setting [1] and 23.2% under setting [3]. Besides, under setting [2], the half-maximal activity concentration (AC50) is 0.282 µM [rising, full curve, poor fit].

Regarding `COc1ccccc1-c1nc(NC2CC2)c2ccccc2n1`, the max response was determined as 12.6% under setting [1] and 17.7% under setting [3]. Under setting [2], the AC50 is 0.112 µM [rising, full curve].

Regarding `O=C(Nc1ccccc1)N1CCC2(CC1)CCN(C(=O)c1ccco1)CC2`, the max response was found to be 18.8% under setting [1] and 30.1% under setting [3]. Besides, under setting [2], the AC50 is 1.41 µM [rising, full curve, poor fit].

For `NCCCCN=C(N)N`, the max response is, setting by setting: under setting [1], 80.3% and 45.1%; under setting [3], 107% and 46.3%. Moreover, the AC50 under setting [2] is 39.8 µM [rising, single point].

`N[C@@H](CO)C(=O)O`: the max response runs as follows: under setting [1], 26.3%; under setting [3], 33.3%. In addition, under setting [2], the AC50 was 39.8 µM [rising, single point].

In the case of `O=C(Oc1ccccc1)N1CCC[C@@]2(CCN(c3ccccc3)C2)C1`, the max response runs as follows: under setting [1], 23.5%; under setting [3], -17%. The concentration at half-maximal activity (AC50) under setting [4] is 0.282 µM [rising, partial curve, poor fit].

On to `COc1ccccc1-c1ccc2ncnc(N3CCN(C)CC3)c2c1`, for which the max response is -20.2% under setting [1] and -54.8% under setting [3]. Besides, the AC50 under setting [2] is 39.8 µM [falling, single point].

With `O=C(c1ccncc1)N1CCC2(CC1)CN(c1ccc(-c3ccccc3)cc1)C2`, the max response reads like this: under setting [1], -21.7%; under setting [3], -33.7%. In addition, under setting [2], the AC50 was 39.8 µM [falling, single point].

For the molecule `CCNc1ncc2nc(CCc3ccccc3)c(=O)n(CCOC)c2n1`, the max response stood at 12.5% under setting [1] and 21.5% under setting [3]. Also, under setting [2], the AC50 was 0.0224 µM [rising, full curve, poor fit].

As for `O=c1cnc2cnc(N3CCNCC3)nc2n1Cc1cccs1`, the max response by setting is: under setting [1], 25.9%; under setting [3], 37.6%. Besides, the AC50 under setting [2] was 0.00794 µM [rising, full curve, poor fit].

With `COc1ccc(C(=O)N2CCC3(CCCN(Cc4cc(C(F)(F)F)cc(C(F)(F)F)c4)C3)CC2)cc1`, the max response runs as follows: under setting [1], 9.87%; under setting [3], 8.69%. Also, the AC50 under setting [2] was 0.708 µM [rising, full curve, poor fit].

`Fc1ccc(Nc2ncnc3ccc(-c4ccoc4)cc23)cc1`: the max response reads like this: under setting [1], 28.6%; under setting [3], 28.5%. The half-maximal activity concentration (AC50) under setting [4] is 3.16 µM [rising, full curve, poor fit].

Take `COCCNc1ncnc2ccc(-c3c(C)noc3C)cc12`: the max response under setting [1] amounted to 5.17% and the max response under setting [3] was -0.571%. Also, the AC50 under setting [2] was 3.55 µM [rising, single point].

Take `CC1CCC2C(C)(C)C3CC12CC[C@]3(C)O` (stereo partly specified): the max response under setting [1] is -14.5% and the max response under setting [3] is -10.4%. Besides, under setting [2], the concentration at half-maximal activity (AC50) was 8.91 µM [rising, single point].

Consider `COc1ccccc1N1CCN(C[C@@H](C(=O)NC(C)(C)C)c2ccccc2)CC1`, for which the max response was 29.9% under setting [1] and 76.7% under setting [3]. In addition, under setting [2], the concentration at half-maximal activity (AC50) was 20 µM [rising, single point].

In the case of `COc1ccc(C(=O)N2CCC3(CCN(Cc4nccs4)CC3)CC2)cc1`, the max response is, setting by setting: under setting [1], 23.2%; under setting [3], 30.6%. For the same molecule, the half-maximal activity concentration (AC50) under setting [2] is 4.47 µM [rising, partial curve, poor fit].

On to `COCCn1c(=O)c(-c2cc(F)cc(F)c2)nc2cnc(N3CCN(C)CC3)nc21`, for which the max response turned out to be 23.4% under setting [1] and 33.5% under setting [3]. Moreover, under setting [2], the concentration at half-maximal activity (AC50) is 39.8 µM [rising, single point].

In the case of `COC(=O)N1CCC[C@@]2(CCN(C(=O)Nc3ccc(OC)cc3)C2)C1`, the max response runs as follows: under setting [1], 11%; under setting [3], 21.5%. Under setting [2], the AC50 was 0.0562 µM [rising, full curve, poor fit].

Turning to `N#Cc1cccc(NC(=O)N2CCCC3(CCN(C(=O)c4cnccn4)CC3)C2)c1`, the max response was found to be 15.2% under setting [1] and 29.8% under setting [3]. In addition, the AC50 under setting [2] was 0.0224 µM [rising, full curve, poor fit].

In the case of `Nc1ccc(C(=O)Oc2ccccc2)c(O)c1`, the max response reads like this: under setting [1], -2.43%; under setting [3], 4.44%. In addition, the AC50 under setting [2] was 3.55 µM [rising, single point].

As for `O=C(c1cc(C(F)(F)F)cc(C(F)(F)F)c1)N1CCC2(CC1)CN(Cc1ccncc1)C2`, the max response under setting [1] amounted to 15.6% and the max response under setting [3] is 20.1%. Besides, the AC50 under setting [2] is 0.0126 µM [rising, full curve, poor fit].

Take `O=C(O)/C=C/C=C/c1ccccc1`: the max response came out at 27.9% under setting [1] and 42.2% under setting [3]. Moreover, the AC50 under setting [2] is 17.8 µM [rising, partial curve].

Take `COc1ccc2c(c1)c(CC(=O)OCC(=O)O)c(C)n2C(=O)c1ccc(Cl)cc1`: the max response was found to be 21.5% under setting [1] and 44.9% under setting [3]. The AC50 under setting [2] is 39.8 µM [rising, single point].

Take `O=c1c(-c2ccc(Cl)cc2)nc2cnc(Nc3ccccc3)nc2n1C1CC1`: the max response runs as follows: under setting [1], 54.2%; under setting [3], -51.9%. The concentration at half-maximal activity (AC50) under setting [4] is 10 µM [rising, partial curve].

`COc1ccc(NC(=O)N2CCCC3(CCN(C(=O)c4cccn4C)CC3)C2)cc1`: the max response under setting [1] is 19.7% and the max response under setting [3] is 31.4%. The half-maximal activity concentration (AC50) under setting [2] is 0.0282 µM [rising, full curve, poor fit].

On to `COc1ccc(-c2nc3cnc(N(C)C)nc3n(C3CC3)c2=O)cc1`, for which the max response was 27% under setting [1] and 35.8% under setting [3]. The AC50 under setting [2] is 3.98 µM [rising, partial curve].

With `COc1cc(S(C)=O)ccc1-c1nc2ncccc2[nH]1` (stereo unspecified), the max response was found to be 23% under setting [1] and 42.5% under setting [3]. The AC50 under setting [2] was 15.8 µM [rising, partial curve, poor fit].

What is called AC50 is the concentration giving half of the maximal activity seen.

These data come from PubChem BioAssay (NCATS).
